Measured values reported in a compilation of properties of binary mixtures (doi:10.1016/j.molliq.2016.04.040).
Some of these densities may be calculated back from excess volumes.

Test: xn = mol fraction of the nth substance listed
Conditions: 100 kPa

CCC[NH3+].O=C[O-] + O
mass density [kg/m3]
Conditions	293.15 K	298.15 K	303.15 K	308.15 K	313.15 K	318.15 K	323.15 K	328.15 K	333.15 K
x2 = 0	996.1	993.4	990.8	988.1	985.4	982.7	980.1	977.4	974.8
x2 = 0.0505	997.7	994.9	992.2	989.5	986.8	–	981.4	978.7	976.1
x2 = 0.1036	999.1	996.4	993.7	991	988.3	985.6	983	980.3	977.6
x2 = 0.2456	1004	–	998.6	–	–	990.5	987.8	–	–
x2 = 0.2838	–	1003	1000.3	997.6	994.8	992.1	–	986.7	–
x2 = 0.429	1012.7	1009.8	–	–	1001.6	998.8	996.1	993.4	990.6
x2 = 0.5184	1017.9	–	1012.3	1009.4	1006.6	1003.8	1000.9	998.1	–
x2 = 0.6064	–	–	1017.1	1014.2	1011.4	1008.6	1005.7	–	1000
x2 = 0.6994	1027.1	1024.3	1021.4	1018.6	1015.7	1012.9	1010	1007.1	1004.1
x2 = 0.8008	1030.6	1027.8	1025.1	–	1019.3	–	1013.6	1010.6	1007.7
x2 = 0.9026	1027.2	1024.8	–	1019.6	1017	1014.2	1011.4	1008.6	1005.7

CC(=O)[O-].CCC[NH3+] + CN1CCCC1=O
mass density [kg/m3]
Conditions	293.15 K	298.15 K	303.15 K	308.15 K	313.15 K	318.15 K	323.15 K	328.15 K	333.15 K
x2 = 0	989.9	986.9	–	980.7	977.6	–	–	968.4	–
x2 = 0.05	990.6	987.3	–	980.8	–	974.3	971.1	967.9	964.6
x2 = 0.0978	991.3	988.1	984.8	981.5	978.3	975	971.7	968.4	965.2
x2 = 0.1978	994.9	991.5	988.1	984.7	–	977.9	974.6	971.2	967.8
x2 = 0.3095	999.7	996.2	992.6	989.1	985.5	–	–	974.9	971.2
x2 = 0.3891	1003.3	999.7	996	992.4	988.7	985.1	–	–	973.8
x2 = 0.4931	1008.1	1004.4	1000.6	996.8	993	989.1	985.3	981.4	977.4
x2 = 0.599	1013.2	1009.3	–	1001.4	997.4	993.4	989.4	985.4	–
x2 = 0.7001	1018.4	1014.3	–	1006.1	1001.9	–	993.5	989.2	984.9
x2 = 0.7998	–	1019.4	1015.1	1010.8	–	1002.1	–	–	988.7
x2 = 0.891	–	1023.9	1019.5	1015	1010.5	1006	1001.5	996.9	992.3

CCC[NH3+].O=C[O-] + CN1CCCC1=O
mass density [kg/m3]
Conditions	293.15 K	298.15 K	303.15 K	308.15 K	313.15 K	318.15 K	323.15 K	328.15 K	333.15 K
x2 = 0	–	993.4	–	988.1	985.4	982.7	980.1	977.4	974.8
x2 = 0.0494	999.6	996.7	993.9	–	988.3	985.5	–	980	977.2
x2 = 0.1047	1002.5	999.5	996.7	993.8	–	988.1	985.3	982.5	979.6
x2 = 0.1953	1006.9	1003.9	1000.7	997.8	994.8	991.8	988.7	985.7	982.7
x2 = 0.3021	–	1008.2	1005.1	–	998.7	995.5	992.3	989	985.8
x2 = 0.4205	1016.6	–	–	1006.2	1002.8	999.4	995.9	992.5	989
x2 = 0.5063	1019.6	1016	1012.5	1008.9	1005.3	–	998.1	994.6	990.9
x2 = 0.6001	1022.8	1018.9	1015.2	1011.5	1007.8	1004	–	–	992.7
x2 = 0.7075	1026.2	1022.3	1018.3	1014.5	1010.5	1006.5	1002.6	998.6	–
x2 = 0.7986	–	–	1020.7	1016.5	–	1008.4	1004.3	1000.1	–
x2 = 0.9048	–	1026.9	1022.4	–	1013.9	1009.7	1005.3	1001	996.6

CC(=O)[O-].CCC[NH3+] + O
mass density [kg/m3]
Conditions	293.15 K	298.15 K	303.15 K	308.15 K	313.15 K	318.15 K	323.15 K	328.15 K	333.15 K
x2 = 0	989.9	986.9	983.8	980.7	977.6	974.6	–	968.4	965.3
x2 = 0.0494	995.1	991.9	988.7	985.6	982.4	979.2	976	972.9	969.7
x2 = 0.1004	998.2	995.1	992	988.9	985.8	982.7	–	976.5	973.4
x2 = 0.2096	1003.6	1000.4	997.2	–	990.9	987.7	–	981.3	–
x2 = 0.2992	1007.4	1004.3	–	998.1	994.9	991.8	988.7	985.6	982.3
x2 = 0.3878	1011	1008	1004.9	1001.8	998.7	995.5	992.4	989.2	–
x2 = 0.5035	1016	1013	1010	1006.9	1003.8	1000.6	997.5	994.3	–
x2 = 0.6067	1020.1	1017	1013.8	–	1007.5	1004.3	–	–	994.7
x2 = 0.6965	1023.9	1020.7	1017.6	1014.4	–	1008	1004.8	1001.6	998.3
x2 = 0.7999	1027.8	1024.7	1021.6	1018.5	1015.3	1012.1	1008.9	1005.6	1002.3
x2 = 0.9022	1025.9	1022.6	1019.7	1016.4	1013.4	1010.3	1006.9	1003.5	–
